The supplement of paper PMC12217912
The list shows a part of the results. The full chains were built here from the parent and the listed change. Values near 0.05 are background.

B1: TEV protease; numbered along this chain (parent)
chain: MGESLFKGPRDYNPISSSICHLTNESDGHTTSLYGIGFGPFIITNKHLFRRNNGTLVVQSLHGVFKVKDTTTLQQHLVDGRDMIIIRMPKDFPPFPQKLKFREPQREERICLVTTNFQTKSMSSMVSDTSCTFPSGDGIFWKHWIQTKDGQCGSPLVSTRDGFIVGIHSASNFTNTNNYFTSVPKNFMELLTNQEAQQWVSGWRLNADSVLWGGHKVFMVKPEEPFQPVKEATQL

Variants of: B1
Experiment: raw area under fraction-flipped curve 0-4 h after induction (AUC4h, not background-subtracted), DNA-recorder readout of cleavage of the substrate (dimensionless); higher = more cleavage of the substrate by the protease variant
Details: temperature: 34 °C; time window: 0-4 h after rhamnose induction
Protocol: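 In vivo DNA recorder in E. coli TOP10(DE3) ΔrhaA at 34 °C. Each TEVp single-site mutant (parent TEVp 0) is paired with a single-site variant of the 7-mer TEVs (canonical ENLYFQ|S). The substrate sits between flexible linkers in a Bxb1-sfGFP-TEVs-SsrA fusion, so cleavage stabilises Bxb1 and speeds flipping of a recombination array, read by NGS. The value is the raw area under the fraction-flipped curve over 0-4 h after rhamnose induction (AUC4h), with ≥20 reads per time point. It is not background-subtracted; inactive controls average about 0.047.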
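Further: Bxb1 expression induced with 0.2% (w/v) L-rhamnose at OD600 near 0.5, cultures sampled hourly, flipped fraction per protease–substrate barcode pair counted by paired-end Illumina sequencing.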

Row | Variant | area with substrate ENLAFQS | area with substrate ENLCFQS | area with substrate ENLDFQS | area with substrate ENLFFQS | area with substrate ENLHFQS | area with substrate ENLKFQS | area with substrate ENLLFQS | area with substrate ENLNFQS | area with substrate ENLPFQS | area with substrate ENLSFQS | area with substrate ENLVFQS | area with substrate ENLWFQS | area with substrate ENLEFQS | area with substrate ENLIFQS | area with substrate ENLQFQS | area with substrate ENLRFQS | area with substrate ENLMFQS | area with substrate ENLTFQS | area with substrate ENLGFQS
1 | Y34C | 0.0634 | 0.0684 | 0.0607 | 0.0746 | 0.0574 | 0.106 | 0.0669 | 0.0607 | 0.0658 | 0.0736 | 0.0938 | 0.108 |  |  |  |  |  |  | 
2 | T31C | 0.0584 | 0.0806 | 0.0659 | 0.0856 | 0.0591 | 0.083 |  | 0.053 | 0.0799 | 0.0375 | 0.0868 |  | 0.0619 | 0.0836 | 0.0801 | 0.0786 |  |  | 
3 | T31G | 0.0618 |  | 0.0709 | 0.116 |  | 0.0653 | 0.0661 | 0.0566 | 0.0597 | 0.0821 | 0.0698 | 0.0413 | 0.0554 | 0.0588 | 0.0662 | 0.107 | 0.077 | 0.0468 | 
4 | T31R | 0.0679 | 0.0732 | 0.0644 | 0.07 | 0.0392 | 0.0464 |  | 0.0604 |  | 0.06 |  | 0.0607 |  |  |  | 0.0514 | 0.0474 |  | 0.128
5 | N45Q | 0.0562 | 0.043 | 0.0625 | 0.0485 | 0.0597 | 0.0612 | 0.0543 | 0.0578 | 0.049 | 0.0694 | 0.0385 | 0.0604 | 0.0551 | 0.0677 | 0.0662 | 0.0647 | 0.0712 |  | 0.0634
6 | I36C | 0.0717 | 0.065 | 0.053 | 0.0771 | 0.0508 | 0.0866 |  | 0.0652 | 0.0593 | 0.0608 | 0.0824 |  |  | 0.0797 | 0.067 | 0.0769 | 0.0714 |  | 0.0695
7 | G39V | 0.0595 | 0.0378 | 0.0458 | 0.0436 | 0.0466 | 0.0485 | 0.0426 | 0.0402 | 0.0391 | 0.0438 | 0.043 | 0.0321 | 0.041 | 0.0412 | 0.0476 | 0.0433 | 0.0429 | 0.0489 | 0.0443
8 | G39D | 0.0465 | 0.0499 | 0.0592 | 0.0549 | 0.0542 | 0.0462 |  | 0.0437 | 0.0398 | 0.0438 |  | 0.0376 | 0.0427 | 0.0337 |  |  |  |  | 0.0802
9 | G39K | 0.0343 | 0.041 | 0.0482 | 0.0484 |  | 0.0495 | 0.0427 | 0.0595 | 0.0456 | 0.0626 | 0.036 | 0.0367 | 0.045 |  |  | 0.049 |  |  | 
10 | G39S | 0.0446 |  | 0.0503 | 0.0443 | 0.0636 | 0.0486 | 0.0455 | 0.0568 | 0.0345 | 0.0605 |  |  | 0.058 |  |  | 0.0447 |  |  | 
11 | G37R | 0.0467 | 0.0462 | 0.0599 | 0.0585 | 0.0617 | 0.069 | 0.0618 | 0.0596 | 0.0654 | 0.0562 | 0.0618 |  | 0.0615 | 0.0833 |  | 0.063 |  | 0.0722 | 0.0476
12 | T44L | 0.0619 |  | 0.0598 | 0.0746 | 0.0507 | 0.0372 | 0.0692 | 0.0562 | 0.0543 | 0.0559 |  | 0.0574 | 0.0657 | 0.0537 |  | 0.043 |  |  | 0.052
13 | T44Q | 0.046 |  | 0.0448 | 0.0312 | 0.0576 | 0.0486 | 0.046 | 0.0529 | 0.0335 | 0.021 |  | 0.0447 | 0.0385 | 0.0469 |  |  | 0.0473 | 0.0427 | 0.0662
14 | H29W | 0.0525 |  | 0.049 | 0.0932 | 0.0857 |  | 0.0772 | 0.0687 |  | 0.0662 | 0.0633 | 0.0574 | 0.0686 | 0.0808 |  | 0.0971 | 0.0739 |  | 0.0504
15 | H29Y | 0.0592 |  | 0.0517 | 0.0655 | 0.0626 | 0.0973 | 0.0711 | 0.0617 |  | 0.067 | 0.115 | 0.0811 | 0.0461 | 0.075 | 0.0836 | 0.0657 | 0.0809 |  | 0.0696
16 | H29Q | 0.0672 |  | 0.068 | 0.0831 | 0.0822 | 0.0561 |  | 0.0669 |  | 0.0486 |  | 0.0674 | 0.0699 |  |  | 0.0608 | 0.057 | 0.0582 | 
17 | F41N | 0.0679 | 0.0651 | 0.0641 | 0.081 | 0.078 | 0.0612 | 0.0647 | 0.0749 | 0.0784 | 0.0641 | 0.0598 |  | 0.0653 |  | 0.0425 | 0.0754 | 0.0842 |  | 0.0828
18 | I42W | 0.0607 |  | 0.0529 | 0.0526 | 0.0569 | 0.0566 | 0.0461 | 0.0585 | 0.0545 | 0.0486 | 0.0628 | 0.0554 | 0.0529 | 0.0635 |  | 0.0509 | 0.0623 |  | 0.0556
19 | I42G | 0.0391 | 0.0401 | 0.0422 | 0.0419 | 0.0423 | 0.0502 | 0.0519 | 0.05 | 0.0521 | 0.0264 | 0.0565 | 0.0468 | 0.0652 | 0.0546 | 0.0541 | 0.0451 | 0.0732 |  | 
20 | P40A | 0.0706 |  | 0.0656 | 0.0836 |  | 0.0935 |  | 0.0618 | 0.0715 | 0.0892 |  | 0.0636 | 0.0799 |  | 0.0752 | 0.0794 |  |  | 
21 | I43V | 0.0963 | 0.0788 | 0.0523 | 0.0868 | 0.0648 | 0.0723 |  | 0.0544 | 0.0565 | 0.0655 | 0.0952 |  |  |  |  | 0.0969 | 0.0674 |  | 0.063
22 | L33Q | 0.0634 |  | 0.0622 | 0.0762 | 0.0657 | 0.0567 | 0.0572 | 0.0691 | 0.0627 |  |  |  |  |  | 0.0602 | 0.0565 | 0.0658 |  | 0.0666
23 | L33F | 0.074 | 0.0545 | 0.0613 | 0.0656 | 0.0956 | 0.0644 |  | 0.0565 | 0.0567 | 0.0594 | 0.0637 | 0.0486 | 0.0588 | 0.0707 | 0.0595 | 0.055 |  | 0.0454 | 
24 | L33V | 0.0653 |  |  | 0.0864 | 0.0613 | 0.0758 | 0.0578 | 0.0794 | 0.0596 | 0.0535 |  | 0.0634 |  | 0.078 |  | 0.0828 | 0.0542 |  | 
25 | S32N | 0.0617 | 0.048 | 0.0775 | 0.0693 | 0.0656 | 0.0589 | 0.0749 | 0.0677 | 0.0606 | 0.0585 |  | 0.0566 | 0.0637 |  | 0.0484 |  |  |  | 0.0778
